# Measurements: PubChem BioAssay AID1347120 (National Center for Advancing Translational Sciences (NCATS), 2019)
# Screen size: about 390,000 compounds; about 930 (0.24%) were called active. The inconclusive results got no clear call from the source; some entries with a clear call stand among them for comparison. The call rests on the fitted dose curve; in most records, active means well fitted activation curve with a large enough effect; inconclusive means small, poorly fitted or top-dose-only effect; inactive means no such curve, though single readings can be large or run the other way. Potencies of inconclusive entries are doubtful fits and often do not repeat.
# Experiment: qHTS for Suppressors of FUS Proteinopathy: Primary screen using FUS-linked yeast assay; further: nearly all actives have a fitted effect of over 55% in size
# Conditions: S. cerevisiae FUS-expressing, OD600, 24 h; Potency: growth rescue; series mostly up to 76.6 µM
# Procedure, shortened: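 Read-out: OD at 600 nm after 24hr at 30C, reporting rescue of FUS-induced yeast toxicity. Cells at OD 0.005 in galactose (2%) minimal medium; compounds tested in a dilution series; CP55940 titration from 92uM final as control.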
# Potency means the concentration at half of the fitted maximal effect; tags describe the fitted curve by direction and shape.
row,Structure (SMILES),Potency
1,COc1ccc(CN(C)C(=O)c2cccc(S(=O)(=O)N3CCc4ccccc43)c2)c(OC)c1,"inconclusive: 31.6 µM [activator, single point]"
2,Cc1ccc(OCc2ccc(C(=O)N3CCCC3)o2)c([N+](=O)[O-])c1,"inconclusive: 2.82 µM [activator, full curve]"
3,CC(OC(=O)c1ccc(-n2cnnn2)cc1)C(=O)Nc1ccc(F)c(F)c1F (stereo not drawn),inactive
4,Cn1c(N/N=C/c2c[nH]c3ccccc23)nc2ccccc21,"inconclusive: 39.8 µM [activator, partial curve, poor fit]"
5,COC(=O)c1ccc(OCCOc2ccccc2)cc1,inactive
6,CC1C=CCC2C(=O)N(c3cccc(C(=O)N4CCN(c5ccc(F)cc5)CC4)c3)C(=O)C12 (stereo not drawn),"inconclusive: 22.4 µM [activator, partial curve]"
7,COc1ccc(S(=O)(=O)N2CCN(C(=O)CCSc3ccccc3)CC2)cc1,"inconclusive: 35.5 µM [activator, partial curve, poor fit]"
8,Cc1ccc(C(=O)Nc2nc3n(n2)C(c2ccccc2)C=C(c2ccccc2)N3)cc1 (stereo not drawn),"inconclusive: 50.1 µM [activator, single point]"
9,O=C(CSc1nc(C(F)(F)F)cc(=O)[nH]1)Nc1cccc2ccccc12,"inconclusive: 8.91 µM [activator, partial curve, poor fit]"
10,Cc1cc(/C=N/n2cnnc2)c(C)n1-c1ccc(OCc2ccc(Cl)cc2Cl)cc1,"inconclusive: 10 µM [activator, single point]"
11,Cc1ccc(Cl)cc1N1CCN(C(=O)Cn2cnc3nc4c(cc3c2=O)CCCC4)CC1,"inconclusive: 28.2 µM [activator, single point]"
12,Cn1nnnc1N=N/C(=N/Nc1ccccc1)c1ccccc1,inactive
13,Cc1ccc(C)n1-c1nnc(N2CCCC(C(=O)NCc3ccc(F)cc3)C2)s1 (stereo not drawn),inactive
14,CC(C)(C)C(=O)N1CCN(c2ccc(NC(=O)c3ccc([N+](=O)[O-])o3)cc2)CC1,inactive
15,O=C(NCc1cccc(Br)c1)c1cccn1-c1nnc(N2CCCCC2)s1,"inconclusive: 35.5 µM [activator, single point]"
16,Cc1ccc(C)c(-c2cc(C(=O)N/N=C/c3cccnc3)c3ccccc3n2)c1,"inconclusive: 31.6 µM [activator, partial curve]"
17,Cn1c(NC(=O)C2CCCC2)cc(=O)n(C)c1=O,inactive
18,O=C(C[C@H]1C/C=C\C[C@@H](Cc2ccc(F)cc2)C(=O)OC[C@H]2CCCN2C1=O)N[C@@H](CO)Cc1ccccc1,"inconclusive: 20 µM [activator, partial curve]"
